# Data as given in a collection of fitness landscapes (doi:10.1126/science.1257360).
# This is one part of the list.
# B1: PhoQ; a variant is named by its letters at X, in order, P23837 (parent)
# chain: MKKLLRLFFPLSLRVRFLLATAAVVLVLSLAYGMVALIGYSVSFDKTTFRLLRGESNLFYTLAKWENNKLHVELPENIDKQSPTMTLIYDENGQLLWAQRDVPWLMKMIQPDWLKSNGFHEIEADVNDTSLLLSGDHSIQQQLQEVREDDDDAEMTHSVAVNVYPATSRMPKLTIVVVDTIPVELKSSYMVWSWFIYVLSANLLLVIPLLWVAAWWSLRPIEALAKEVRELEEHNRELLNPATTRELTSLVRNLNRLLKSERERYDKYRTTLTDLTHSLKTPLXXLQXXLRSLRSEKMSVSDAEPVMLEQISRISQQIGYYLHRASMRGGTLLSRELHPVAPLLDNLTSALNKVYQRKGVNISLDISPEISFVGEQNDFVEVMGNVLDNACKYCLEFVEISARQTDEHLYIVVEDDGPGIPLSKREVIFDRGQRVDTLRPGQGVGLAVAREITEQYEGKIVAGESMLGGARMEVIFGRQHSAPKDE
# Variants of: B1
# Experiment: enrichment ratio after two sorts for PhoP signalling (ratio (wild type AVST 3.29)); higher = more functional
# Conditions: with PhoP (E. coli)
row,Variant,enrichment ratio
1,EIRD,≤ 0.25
2,LAVP,≤ 0.25
3,FDSH,≤ 0.25
4,KGHW,≤ 0.25
5,SMCK,9.85
6,MSQW,≤ 0.25
7,DTMD,≤ 0.25
8,WHII,≤ 0.25
9,IDDI,≤ 0.25
10,VKKY,≤ 0.25
11,WEES,≤ 0.25
12,SQGE,≤ 0.25
13,WEKC,≤ 0.25
14,KKIL,≤ 0.25
15,AIFK,≤ 0.25
16,HLRR,≤ 0.25
17,RCDF,≤ 0.25
18,RHWP,≤ 0.25
19,QVTV,≤ 0.25
20,LINR,≤ 0.25
21,LIQV,≤ 0.25
22,YPED,≤ 0.25
23,SVPG,≤ 0.25
24,RAFL,≤ 0.25

row,Variant,enrichment ratio
1,HVKN,≤ 0.25
2,PACG,≤ 0.25
3,RPVE,≤ 0.25
4,FDYP,≤ 0.25
5,CHDR,≤ 0.25
6,VCCS,≤ 0.25
7,PVVA,≤ 0.25
8,MNKA,≤ 0.25
9,FIES,≤ 0.25
10,WAPP,≤ 0.25
11,FEEV,≤ 0.25
12,GWAV,≤ 0.25
13,DWRM,≤ 0.25
14,HHAH,≤ 0.25
15,DASL,≤ 0.25
16,LAMT,≤ 0.25
17,KRMW,≤ 0.25
18,ARKM,≤ 0.25
19,VSSR,≤ 0.25
20,ESQH,≤ 0.25
21,DTNQ,≤ 0.25
22,VLLN,≤ 0.25
23,HSII,7.5
24,VFES,≤ 0.25

row,Variant,enrichment ratio
1,PYVC,≤ 0.25
2,HNFV,≤ 0.25
3,YAMV,1.25
4,MQIQ,≤ 0.25
5,WFMY,≤ 0.25
6,GSHW,≤ 0.25
7,SWTA,≤ 0.25
8,DHQL,≤ 0.25
9,LSCT,≤ 0.25
10,YWVH,≤ 0.25
11,IKMN,≤ 0.25
12,GIND,≤ 0.25
13,TYPN,≤ 0.25
14,FDWL,≤ 0.25
15,NMQI,≤ 0.25
16,TQPD,≤ 0.25
17,RQES,≤ 0.25
18,DSMS,≤ 0.25
19,HYEG,≤ 0.25
20,IPMI,≤ 0.25
21,IYNA,≤ 0.25
22,ADQV,0.355
23,IENH,≤ 0.25
24,NNYK,≤ 0.25

row,Variant,enrichment ratio
1,RNRY,≤ 0.25
2,FRWD,≤ 0.25
3,GWSL,≤ 0.25
4,PWKG,≤ 0.25
5,ARLD,≤ 0.25
6,PDVL,≤ 0.25
7,NNGH,≤ 0.25
8,IFCI,≤ 0.25
9,NEAH,≤ 0.25
10,EAFC,≤ 0.25
11,CFYG,≤ 0.25
12,KTLK,≤ 0.25
13,ACSE,≤ 0.25
14,GMQF,≤ 0.25
15,SSHH,≤ 0.25
16,WEGT,≤ 0.25
17,PHSY,≤ 0.25
18,THQA,≤ 0.25
19,NDKF,≤ 0.25
20,FEWG,≤ 0.25
21,IYIG,≤ 0.25
22,EIRA,≤ 0.25
23,WFIE,≤ 0.25
24,YFKG,≤ 0.25

row,Variant,enrichment ratio
1,FMIG,≤ 0.25
2,TTFR,≤ 0.25
3,GFWF,≤ 0.25
4,VASC,≤ 0.25
5,FVRL,≤ 0.25
6,VMLL,≤ 0.25
7,TMRK,≤ 0.25
8,WPEV,≤ 0.25
9,RLAT,≤ 0.25
10,HHIP,≤ 0.25
11,LCQL,≤ 0.25
12,MGTV,7.44
13,SHVC,≤ 0.25
14,GVPF,≤ 0.25
15,HDPW,≤ 0.25
16,AKFT,≤ 0.25
17,DMYN,≤ 0.25
18,FWWI,≤ 0.25
19,QKLH,≤ 0.25
20,DIES,≤ 0.25
21,WRTI,≤ 0.25
22,GRIK,≤ 0.25
23,YCWV,≤ 0.25
24,LDEG,≤ 0.25

row,Variant,enrichment ratio
1,VGQR,≤ 0.25
2,LVFK,≤ 0.25
3,QGPM,≤ 0.25
4,MLYG,≤ 0.25
5,GEPA,≤ 0.25
6,YAEG,≤ 0.25
7,RTEA,≤ 0.25
8,FRSW,≤ 0.25
9,NQDS,≤ 0.25
10,AGLE,3.91
11,QHVL,≤ 0.25
12,PGNI,≤ 0.25
13,FQPM,≤ 0.25
14,AVLV,5.05
15,TNFA,≤ 0.25
16,QTAM,≤ 0.25
17,RHAI,≤ 0.25
18,KTND,≤ 0.25
19,ERRP,≤ 0.25
20,KVIT,≤ 0.25
21,EQPS,≤ 0.25
22,SINE,≤ 0.25
23,TGWI,26.1
24,RQFG,≤ 0.25

row,Variant,enrichment ratio
1,TVPI,≤ 0.25
2,NMVL,≤ 0.25
3,MHTG,≤ 0.25
4,YEYC,≤ 0.25
5,TPHF,≤ 0.25
6,MFVP,≤ 0.25
7,KVCK,≤ 0.25
8,NQHW,≤ 0.25
9,MFPQ,≤ 0.25
10,IYFH,≤ 0.25
11,RVHF,≤ 0.25
12,MNAR,≤ 0.25
13,TPQP,≤ 0.25
14,TKSD,≤ 0.25
15,RVTI,≤ 0.25
16,WLGW,≤ 0.25
17,FWPN,≤ 0.25
18,IAMV,2.82
19,TWSL,≤ 0.25
20,ECWP,≤ 0.25
21,WAFR,≤ 0.25
22,SAVC,≤ 0.25
23,SYPP,≤ 0.25
24,AFVV,≤ 0.25

row,Variant,enrichment ratio
1,TWAH,≤ 0.25
2,LENN,≤ 0.25
3,HPCV,≤ 0.25
4,MDYG,≤ 0.25
5,QMWG,≤ 0.25
6,APSR,≤ 0.25
7,MYTF,≤ 0.25
8,DCFN,≤ 0.25
9,LHCI,≤ 0.25
10,GLFL,≤ 0.25
11,ELPE,≤ 0.25
12,MGKI,≤ 0.25
13,VCDM,≤ 0.25
14,LEQD,≤ 0.25
15,PTRV,≤ 0.25
16,IGAE,≤ 0.25
17,WEAR,≤ 0.25
18,KYSP,≤ 0.25
19,VTII,≤ 0.25
20,IHCN,≤ 0.25
21,LPFH,≤ 0.25
22,ILGY,≤ 0.25
23,DIEV,≤ 0.25
24,YRTS,≤ 0.25

row,Variant,enrichment ratio
1,CFTF,≤ 0.25
2,WVPC,≤ 0.25
3,VKWG,≤ 0.25
4,AQRI,≤ 0.25
5,PQKC,≤ 0.25
6,DNSD,≤ 0.25
7,THDN,≤ 0.25
8,TENI,10.2
9,FHRH,≤ 0.25
10,WFKR,≤ 0.25
11,PSEA,≤ 0.25
12,MTWK,≤ 0.25
13,ISPI,≤ 0.25
14,HIYR,≤ 0.25
15,KDHL,≤ 0.25
16,PYRP,≤ 0.25
17,IQPG,≤ 0.25
18,SLYG,≤ 0.25
19,DNCK,≤ 0.25
20,IITI,≤ 0.25
21,FMNG,≤ 0.25
22,AGLT,7.3
23,VSIW,≤ 0.25
24,HYGA,≤ 0.25

row,Variant,enrichment ratio
1,VFGL,≤ 0.25
2,MNID,≤ 0.25
3,FDKC,≤ 0.25
4,HHRN,≤ 0.25
5,LYPN,≤ 0.25
6,EPIK,≤ 0.25
7,LSEY,≤ 0.25
8,AFIS,≤ 0.25
9,VDKN,≤ 0.25
10,GSLV,17.9
11,LKHT,≤ 0.25
12,IFDF,≤ 0.25
13,DKVP,≤ 0.25
14,SDPD,≤ 0.25
15,SELS,20.9
16,LIMI,≤ 0.25
17,YCSQ,≤ 0.25
18,ETNW,≤ 0.25
19,KDCF,≤ 0.25
20,YRWM,≤ 0.25
21,YIIC,≤ 0.25
22,SYRL,≤ 0.25
23,GREV,≤ 0.25
24,QPIK,≤ 0.25

row,Variant,enrichment ratio
1,DSHH,≤ 0.25
2,FIQK,≤ 0.25
3,NINY,≤ 0.25
4,QYPD,≤ 0.25
5,CYFP,≤ 0.25
6,VRML,≤ 0.25
7,VVPK,≤ 0.25
8,YFDY,≤ 0.25
9,WNNY,≤ 0.25
10,VYED,≤ 0.25
11,HEHI,≤ 0.25
12,MAAA,≤ 0.25
13,WEPH,1.73
14,TPCG,≤ 0.25
15,RDFI,≤ 0.25
16,PKTL,≤ 0.25
17,YKNS,≤ 0.25
18,MCMG,7.07
19,IGFD,≤ 0.25
20,MQYY,≤ 0.25
21,SWCD,≤ 0.25
22,LQEP,≤ 0.25
23,DMMR,≤ 0.25
24,DSFR,≤ 0.25

row,Variant,enrichment ratio
1,GQMM,11.4
2,YDVF,≤ 0.25
3,YMHF,≤ 0.25
4,VCQM,≤ 0.25
5,WTYW,≤ 0.25
6,RSKD,≤ 0.25
7,RCLK,≤ 0.25
8,VWIH,≤ 0.25
9,YILM,12.1
10,GNHI,≤ 0.25
11,IALE,≤ 0.25
12,FIVH,≤ 0.25
13,NWPT,≤ 0.25
14,REHT,≤ 0.25
15,RYYF,≤ 0.25
16,SHSW,≤ 0.25
17,TFLD,≤ 0.25
18,QQKF,≤ 0.25
19,IPHC,≤ 0.25
20,ELPV,≤ 0.25
21,WVTR,≤ 0.25
22,APFG,≤ 0.25
23,KHLM,≤ 0.25
24,TRHN,≤ 0.25

row,Variant,enrichment ratio
1,NTKA,≤ 0.25
2,KGGM,≤ 0.25
3,HWSY,≤ 0.25
4,AAFL,≤ 0.25
5,NVSW,≤ 0.25
6,DHCK,≤ 0.25
7,AGNL,≤ 0.25
8,YNCK,≤ 0.25
9,MDYD,≤ 0.25
10,FEDS,≤ 0.25
11,NQKG,≤ 0.25
12,LPDN,≤ 0.25
13,RLCM,≤ 0.25
14,AYFH,≤ 0.25
15,YLMQ,≤ 0.25
16,TGVP,≤ 0.25
17,PRVS,≤ 0.25
18,PGMC,≤ 0.25
